Results from paper PMC4336329 (PLoS ONE, 2015).
About 2,200 (0.71%) of roughly 310,000 compounds showed an effect of 50% or more. The effect is printed as a negative number. Some of the results follow.

What follows are compounds tested against human ether-à-go-go-related gene (hERG) potassium channel (human, UniProt Q12809) (assay: primary screen, population patch clamp on CHO cells stably expressing hERG).
Sequence of human ether-à-go-go-related gene (hERG) potassium channel (Q12809 whole entry, looked up): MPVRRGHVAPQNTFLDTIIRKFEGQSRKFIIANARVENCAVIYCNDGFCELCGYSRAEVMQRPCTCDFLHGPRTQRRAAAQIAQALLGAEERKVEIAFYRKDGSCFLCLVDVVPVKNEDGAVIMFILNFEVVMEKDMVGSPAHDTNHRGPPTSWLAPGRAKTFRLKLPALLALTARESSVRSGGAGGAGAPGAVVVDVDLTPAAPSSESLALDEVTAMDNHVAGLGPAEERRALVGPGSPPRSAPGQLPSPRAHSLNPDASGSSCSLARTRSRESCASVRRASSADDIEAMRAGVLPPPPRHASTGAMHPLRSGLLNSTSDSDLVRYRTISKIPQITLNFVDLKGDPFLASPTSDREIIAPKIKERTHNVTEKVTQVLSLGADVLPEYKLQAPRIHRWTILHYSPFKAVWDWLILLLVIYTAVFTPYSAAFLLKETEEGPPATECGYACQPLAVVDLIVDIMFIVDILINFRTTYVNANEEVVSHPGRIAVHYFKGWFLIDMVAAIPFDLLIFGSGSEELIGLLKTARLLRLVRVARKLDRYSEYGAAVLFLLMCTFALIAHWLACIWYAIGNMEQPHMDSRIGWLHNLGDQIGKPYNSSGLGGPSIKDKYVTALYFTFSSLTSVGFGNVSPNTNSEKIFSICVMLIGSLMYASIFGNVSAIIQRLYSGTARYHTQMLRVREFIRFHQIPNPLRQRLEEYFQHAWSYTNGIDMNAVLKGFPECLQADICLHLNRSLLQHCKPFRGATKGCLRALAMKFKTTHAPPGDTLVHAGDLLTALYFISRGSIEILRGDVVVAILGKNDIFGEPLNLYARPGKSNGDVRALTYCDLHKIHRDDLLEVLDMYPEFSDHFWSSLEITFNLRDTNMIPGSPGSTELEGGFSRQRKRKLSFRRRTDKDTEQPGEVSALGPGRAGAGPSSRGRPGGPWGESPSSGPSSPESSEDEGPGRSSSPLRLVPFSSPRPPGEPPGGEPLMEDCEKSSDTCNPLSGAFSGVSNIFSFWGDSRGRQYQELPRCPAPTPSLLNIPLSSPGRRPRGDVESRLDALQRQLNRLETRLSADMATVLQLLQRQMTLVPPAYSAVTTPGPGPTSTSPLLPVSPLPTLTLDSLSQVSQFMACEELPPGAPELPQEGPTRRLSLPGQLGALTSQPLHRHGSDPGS

| SMILES | hERG current change (%, negative = inhibition) at 1uM |
| --- | --- |
| COc1cc(C(=O)NNC(=O)CSc2nnc3ccccn23)cc(OC)c1OC | 15.2% |
| O=C(NCCOC(=O)c1ccc(F)cc1)c1ccc(F)cc1 | 4.03% |
| O=C(O)CCN1C(=O)C2C3CC(C2C1=O)C1C(c2ccccc2)c2sc(=O)[nH]c2SC31 (stereo not shown) | -2.08% |
| CC(=O)Nc1ccccc1NS(=O)(=O)c1ccc(Cl)cc1 | 3.75% |
| COc1cccc(-c2ccnc3[nH]n(-c4ccccc4)c(=O)c23)c1 | 21.3% |
| COc1cc(NC(=O)CSc2nccc(C)n2)c(C)cc1[N+](=O)[O-] | 4.63% |
| CN(C)CCCn1c(-c2ccccc2)nc(=S)c2c1CCCC2 | 11.9% |
| Cc1ccc(CNC(=O)c2nnc(CS(=O)(=O)c3ccccc3)o2)cc1 | 8.37% |
| C=CCNC(=O)c1onc(CSc2cccc(OC)c2)c1C(=O)NCC=C | 18.8% |
| CC(=O)Nc1ccc(S(=O)(=O)NNC(=O)c2ccc([N+](=O)[O-])cc2)cc1 | 9.64% |
| CC1CCN(C(=O)CCNC(=O)c2ccccc2)CC1 | 15.5% |
| CSc1ccc(NC(=O)/C=C/C(=O)O)cc1 | 11.5% |
| CCOC(=O)c1cc(-c2csc(Nc3ccccc3Cl)n2)on1 | 5.25% |
| CCCNCC1C(Oc2ccc(Cl)cc2)C(=O)N1c1ccccc1C (stereo not shown) | -17.4% |
| CN(Cc1ccccc1)C(=O)c1cc2cc(F)ccc2[nH]1 | 12.9% |
| CCNC(=O)COC(=O)c1cccc(Br)c1 | 11.9% |
| CCOC(=O)C1CCN(C(=O)c2ccccc2NC(=O)C2=C(C)OCCS2)CC1 | 15.7% |
| O=C(CN(Cc1ccco1)C(=O)CCC(=O)Nc1nccs1)NCc1ccccc1 | 5.05% |
| CC(=O)NCCC(=O)Nc1ccc(F)cc1C | 14.5% |
| O=C(CSc1nnc(-c2ccncc2)n1-c1ccc(Cl)cc1)Nc1ccc(C(=O)O)cc1 | 15.5% |
| CCOC(=O)[C@H]1[C@H]2COc3ccc(OC)cc3[C@@H]2N2C(=O)CN(Cc3ccc(Cl)cc3)C(=O)[C@@]12C | 12.9% |
| O=C(NCCSc1ccccc1)c1ccccc1 | 16.1% |

| SMILES | hERG current change (%, negative = inhibition) at 1uM |
| --- | --- |
| Cc1cc(C)c2sc(N(CCN(C)C)C(=O)c3ccc4ccccc4c3)nc2c1.Cl | 8.52% |
| C/C(=N\NC(=O)c1ccc2c(c1)OCO2)c1cccnc1 | 18.9% |
| c1ccc2c3c(cc(N4CCOCC4)c2c1)OC1(N2CCOCC2)CCCCC1O3 (stereo not shown) | 3.37% |
| COc1cccc(NC(=O)COC(=O)COc2cccc3c2OC(C)(C)C3)c1 | 1.05% |
| COc1ccc(CC(=O)N(CCC2=CCCCC2)c2c(N)n(Cc3ccccc3)c(=O)[nH]c2=O)cc1OC | 7.08% |
| CCOC(=O)C1(Cc2ccc(OC)cc2)CCN(C(=O)c2sc(C)nc2C)CC1 | 15.2% |
| CCOc1ccc(C(=O)c2ccncc2)cc1 | 17.2% |
| COc1ccc(Cl)cc1N1C(=O)c2cccnc2C1=O | 14.3% |
| CC1CC(C(=O)Nc2ccccc2)C(=O)O1 (stereo not shown) | 13.9% |
| O=c1nc(-c2ccccc2)cn[nH]1 | -0.726% |
| O=C1NC(=O)N(Cc2ccco2)C(=O)/C1=C/c1ccc(-c2cccc([N+](=O)[O-])c2)o1 | 6.53% |
| COc1cc(C)ccc1OCc1cc(C(=O)NCCN2CCCC(O)C2)no1 (stereo not shown) | 1.51% |
| O=C(Cc1coc2cc3c(cc12)CCC3)OCc1cc(=O)n2c(n1)sc1ccccc12 | 6.78% |
| CCCn1c(CCNC(=O)c2cccs2)nc2ccccc21 | -5.46% |
| O=C(NCc1cccs1)c1cccn2c(=O)c3sccc3nc12 | -0.662% |
| Cc1cc(C)n2nc(C(=O)NCc3ccccc3)nc2n1 | -0.707% |
| CC1=C(C(=O)OCc2ccccc2)C(c2cccc3ccccc23)NC(=O)N1CCCC(=O)O (stereo not shown) | 21.4% |
| COc1ccc(CCNC(=O)CCN2C(=O)[C@@H]3Cc4ccccc4CN3C2=O)cc1OC | 21.2% |
| CCOCCCNC(=O)C(NC(=O)CC1NC(=O)NC1=O)c1ccc(Cl)cc1 (stereo not shown) | 2.3% |
| CC1=C(C(=O)Nc2ccccc2C)C2(CCCCC2)C(C(N)=O)C(=S)N1 (stereo not shown) | -1.61% |
| CCCCN(Cc1nc2ccccc2c(=O)[nH]1)C(=O)CN1C(=O)NC2(CCCCC2)C1=O | -7.66% |
| O=C(CCS(=O)(=O)c1ccc(Cl)cc1)N1CCN(c2ccccc2F)CC1 | 0.539% |

| SMILES | hERG current change (%, negative = inhibition) at 1uM |
| --- | --- |
| Oc1ccc2c(ccc3[nH]cnc32)c1 | 19.6% |
| CN(CC(=O)Nc1ccccc1Br)C(=O)c1ccc2c(=O)n3c(nc2c1)CCC3 | 6.85% |
| CCC(C)C(=O)Nc1nc(C)c(-c2csc(Nc3cc(Cl)ccc3OC)n2)s1 (stereo not shown) | 10.8% |
| O=C(C[n+]1ccccc1)N1CCCc2ccccc21.[Cl-] | 12% |
| Cn1cc(SCC(=O)N2CCOCC2)c2ccccc21 | 10.6% |
| Cc1ccnc(NS(=O)(=O)c2ccc(NC(=O)COc3ccccc3)cc2)n1 | 20.7% |
| Cc1cccc(N2CCN(C(=O)c3ccc(NS(=O)(=O)c4c(C)noc4C)cc3)CC2)c1C | -2.07% |
| CC(=O)Nc1ccc(NC(=O)C(C)Oc2ccc(Cl)cc2Cl)cc1 (stereo not shown) | 12.2% |
| COc1ccc(Br)cc1C(=O)NC(=S)Nc1cc(-c2nc3ccccc3[nH]2)ccc1C | 6.11% |
| O=c1[nH]c2ccccc2cc1-c1nnn(-c2ccc(F)cc2)n1 | -2.21% |
| O=C(NC(=S)N1CCN(c2ccc([N+](=O)[O-])cc2)CC1)c1ccccc1 | 6.36% |
| CCOc1ccccc1NC(=O)c1cccc(NC(=O)CC(c2ccccc2)c2ccccc2)c1 | -16.5% |
| Cn1c(C(=O)O)c(C=O)c2ccccc21 | 23.4% |
| CCC(=O)NNc1nc2c(F)cccc2s1 | 11.9% |
| Cc1ccc(NC(=O)COC(=O)C2=COCCO2)cc1 | 10.1% |
| CCCCn1c(N)c(N(CC)C(=O)CSCc2ccc(C)cc2)c(=O)[nH]c1=O | 6.96% |
| Cc1ccc(S(=O)(=O)N2CCC(C(=O)NCC3CCCO3)CC2)cc1 (stereo not shown) | 13.2% |
| CC(=O)Nc1ccc(S(=O)(=O)Nc2cccc(-c3nc4ccccc4o3)c2)cc1 | 7.6% |
| Cc1ccc(SCc2cn3cccnc3n2)cc1 | 12.6% |
| CCc1ccc(C(=O)COC(=O)c2cc([N+](=O)[O-])ccc2N2CCOCC2)cc1 | 1.66% |
| CC1CN(C2=Nc3cccc4cccc2c34)CC(C)O1 (stereo not shown) | 1.35% |
| Cc1cc(=O)oc2c3c(cc(OCC(=O)NCCCn4ccnc4)c12)OC(C)(C)CC3 | -7.59% |

| SMILES | hERG current change (%, negative = inhibition) at 1uM |
| --- | --- |
| COC(=O)c1sccc1NC(=O)c1cccc(F)c1 | 24% |
| CCOC(=O)c1ccc(N2C(=O)C(O)=C(C(C)=O)C2c2ccccn2)cc1 (stereo not shown) | 4.5% |
| NC(=Nc1ccc(N)cc1)C(N)=Nc1ccc(N)cc1 | 10.8% |
| Cc1nc(C)n(C(C)CNC(=O)c2cccc(Br)c2)n1 (stereo not shown) | 12.9% |
| O=C(NCC(O)COc1ccc([N+](=O)[O-])cc1)Nc1ccccc1 (stereo not shown) | -8.26% |
| Cc1cc(C)cc(C(=O)NCC(=O)N(C)CCOc2ccccc2)c1 | 17.5% |
| C=C1C2C[C@H](O)C(C)(C)[C@@]2(O)[C@H](O)C[C@]23C[C@@](C)(O)[C@H](CC[C@H]12)[C@H]3OC(C)=O (stereo partly shown) | 18.8% |
| CCN(c1ccc(OC)cc1)S(=O)(=O)c1nnc(NC(=O)c2ccco2)s1 | 15.3% |
| CS(=O)(=O)N(CC(=O)N1CCN(c2ccccc2)CC1)c1ccccc1Cl | 11.6% |
| CC(=O)NC1CC2CCCC(C1)N2C(=O)Nc1ccc(Cl)c(C(F)(F)F)c1 (stereo not shown) | 7.96% |
| CCOC(=O)C(C)Oc1ccc2c(-c3cccc([N+](=O)[O-])c3)cc(=O)oc2c1 (stereo not shown) | -35.6% |
| COc1cc(OC)c(C(=O)OCC(=O)N2CCOCC2)cc1OC | 11% |
| O=C(CN1CCN(c2ccc(F)cc2)CC1)Nc1ccccc1 | 10.9% |
| COCCCNC(=O)CCC(=O)NNc1nc2ccccc2c2nc(-c3ccccc3)nn12 | -15.2% |
| CN(CC(=O)Nc1cccc(F)c1)C(=O)c1ccccc1OCC(=O)Nc1cccc(C(F)(F)F)c1 | 13.6% |
| O=C(NCc1ccccc1)C(c1cccs1)N(C(=O)c1csnn1)C1CC1 (stereo not shown) | -3.21% |
| CCC(C(=O)OCC(=O)N1C(C)CCCC1C)c1ccccc1 (stereo not shown) | 3.49% |
| CCC(CC)C(=O)Nc1cccc(C(=O)c2ccccc2)c1 | 4.34% |
| CCCCc1c(O)nc(SCC(=O)Nc2cccc3ccccc23)n(-c2ccccc2OC)c1=O | 15.8% |
| CC(C)CC(NC(=O)C1CCC(C)CC1)C(=O)Nc1ccccc1F (stereo not shown) | 9.91% |
| C=CCOc1ccc(Br)cc1/C=N/O | 12.4% |
| Cc1cccn2c(=O)c3cc(C(=O)NC(C)C)c(=N)n(Cc4ccncc4)c3nc12 | -67.2% |
